# Laboratory results from the supplement of paper PMC8728848.
# Some of the results follow.
# How the values were obtained:
# Test in all cases: glycan array binding signal (z-score within array); higher = stronger binding
# Settings in all cases: glycan notation: IUPAC condensed, linker removed
# [1] = target: Neu5Ac(a2-6)Gal(b1-4)GlcNAc(b1-3)Gal(b1-4)GlcNAc(b1-3)Gal(b1-4)GlcNAc(b1-2)Man(a1-3)[Neu5Ac(a2-6)Gal(b1-4)GlcNAc(b1-3)Gal(b1-4)GlcNAc(b1-3)Gal(b1-4)GlcNAc(b1-2)Man(a1-6)]GalNAc
# Summary of the method: (§1)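 Glycan array binding is given as a within-array Z-score, which can be read as non-binding when negative. The arrays, 3228 of them, came from the Consortium for Functional Glycomics database and were retained only where the protein sequence was available. Z-scores were averaged across arrays of the same protein sequence at different concentrations or buffers and across linkers.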
# [2] = target: Neu5Ac(a2-6)Gal(b1-4)GlcNAc(b1-3)Gal(b1-4)GlcNAc(b1-3)GalNAc
# Summary of the method: as §1
# [3] = target: Neu5Ac(a2-6)Gal(b1-4)GlcNAc(b1-3)Gal(b1-4)GlcNAc(b1-3)[Neu5Ac(a2-6)Gal(b1-4)GlcNAc(b1-3)Gal(b1-4)GlcNAc(b1-6)]GalNAc
# Summary of the method: as §1
# [4] = target: Neu5Ac(a2-6)Gal(b1-4)GlcNAc(b1-3)Gal(b1-4)GlcNAc(b1-6)[Gal(b1-3)]GalNAc
# Summary of the method: as §1
# [5] = target: Neu5Ac(a2-6)Gal(b1-4)GlcNAc(b1-3)Gal(b1-4)[Fuc(a1-3)]GlcNAc(b1-3)Gal(b1-4)[Fuc(a1-3)]GlcNAc
# Summary of the method: as §1
# [6] = target: Neu5Ac(a2-6)Gal(b1-4)GlcNAc(b1-3)GalNAc
# Summary of the method: as §1
# [7] = target: Neu5Ac(a2-6)Gal(b1-4)GlcNAc(b1-3)[Neu5Ac(a2-6)Gal(b1-4)GlcNAc(b1-6)]GalNAc
# Summary of the method: as §1
# [8] = target: Neu5Ac(a2-6)Gal(b1-4)GlcNAc(b1-6)GalNAc
# Summary of the method: as §1
# [9] = target: Neu5Ac(a2-6)Gal(b1-4)GlcNAc(b1-6)[Gal(b1-3)GlcNAc(b1-3)]Gal(b1-4)Glc
# Summary of the method: as §1
# [10] = target: Neu5Ac(a2-6)Gal(b1-4)GlcNAc(b1-6)[Gal(b1-3)]GalNAc
# Summary of the method: as §1
# [11] = target: Neu5Ac(a2-6)Gal(b1-4)GlcNAc6S
# Summary of the method: as §1
# [12] = target: Neu5Ac(a2-6)GalNAc
# Summary of the method: as §1
# [13] = target: Neu5Ac(a2-6)GalNAc(b1-4)GlcNAc
# Summary of the method: as §1
# [14] = target: Neu5Ac(a2-6)GalNAc(b1-4)GlcNAc6S
# Summary of the method: as §1
# [15] = target: Neu5Ac(a2-6)GlcNAc(b1-4)GlcNAc
# Summary of the method: as §1
# [16] = target: Neu5Ac(a2-6)GlcNAc(b1-4)GlcNAc(b1-4)GlcNAc
# Summary of the method: as §1
# [17] = target: Neu5Ac(a2-8)Neu5Ac
# Summary of the method: as §1
# [18] = target: Neu5Ac(a2-8)Neu5Ac(a2-3)Gal(b1-3)GalNAc(b1-4)[Neu5Ac(a2-3)]Gal(b1-4)Glc
# Summary of the method: as §1
# [19] = target: Neu5Ac(a2-8)Neu5Ac(a2-3)Gal(b1-3)GalNAc(b1-4)[Neu5Ac(a2-8)Neu5Ac(a2-3)]Gal(b1-4)Glc
# Summary of the method: as §1
# [20] = target: Neu5Ac(a2-8)Neu5Ac(a2-3)Gal(b1-4)Glc
# Summary of the method: as §1
# [21] = target: Neu5Ac(a2-8)Neu5Ac(a2-3)Gal(b1-4)GlcNAc
# Summary of the method: as §1
# [22] = target: Neu5Ac(a2-8)Neu5Ac(a2-3)[Gal(b1-3)GalNAc(b1-4)]Gal(b1-4)Glc
# Summary of the method: as §1
# [23] = target: Neu5Ac(a2-8)Neu5Ac(a2-3)[GalNAc(b1-4)]Gal(b1-4)Glc
# Summary of the method: as §1
# [24] = target: Neu5Ac(a2-8)Neu5Ac(a2-8)Neu5Ac
# Summary of the method: as §1
# [25] = target: Neu5Ac(a2-8)Neu5Ac(a2-8)Neu5Ac(a2-3)Gal(b1-4)Glc
# Summary of the method: as §1
# [26] = target: Neu5Ac(a2-8)Neu5Ac(a2-8)Neu5Ac(a2-3)[Gal(b1-3)GalNAc(b1-4)]Gal(b1-4)Glc
# Summary of the method: as §1
# [27] = target: Neu5Ac(a2-8)Neu5Ac(a2-8)Neu5Ac(a2-3)[GalNAc(b1-4)]Gal(b1-4)Glc
# Summary of the method: as §1
# [28] = target: Neu5Ac(a2-8)Neu5Ac(a2-8)Neu5Ac(a2-8)Neu5Ac(a2-3)[GalNAc(b1-4)]Gal(b1-4)Glc
# Summary of the method: as §1
# [29] = target: Neu5Ac(a2-8)Neu5Gc(a2-3)Gal(b1-4)GlcNAc
# Summary of the method: as §1
# [30] = target: Neu5Ac(b2-6)Gal(b1-4)GlcNAc
# Summary of the method: as §1
# [31] = target: Neu5Ac(b2-6)GalNAc
# Summary of the method: as §1
# [32] = target: Neu5Ac9Ac(a2-3)Gal(b1-3)GlcNAc
# Summary of the method: as §1
# [33] = target: Neu5Ac9Ac(a2-3)Gal(b1-4)GlcNAc
# Summary of the method: as §1
# [34] = target: Neu5Ac9Ac(a2-6)Gal(b1-4)GlcNAc
# Summary of the method: as §1
# [35] = target: Neu5Gc(a2-3)Gal(b1-3)GlcNAc
# Summary of the method: as §1
# [36] = target: Neu5Gc(a2-3)Gal(b1-3)[Fuc(a1-4)]GlcNAc
# Summary of the method: as §1
# [37] = target: Neu5Gc(a2-3)Gal(b1-4)Glc
# Summary of the method: as §1
# [38] = target: Neu5Gc(a2-3)Gal(b1-4)GlcNAc
# Summary of the method: as §1
# [39] = target: Neu5Gc(a2-3)Gal(b1-4)GlcNAc(b1-3)Gal(b1-4)GlcNAc(b1-2)Man(a1-3)[Neu5Gc(a2-3)Gal(b1-4)GlcNAc(b1-3)Gal(b1-4)GlcNAc(b1-2)Man(a1-6)]Man(b1-4)GlcNAc(b1-4)GlcNAc
# Summary of the method: as §1
# [40] = target: Neu5Gc(a2-3)Gal(b1-4)[Fuc(a1-3)]GlcNAc
# Summary of the method: as §1
# [41] = target: Neu5Gc(a2-6)Gal(b1-4)GlcNAc
# Summary of the method: as §1
# [42] = target: Neu5Gc(a2-6)GalNAc
# Summary of the method: as §1
# [43] = target: Neu5Gc(a2-8)Neu5Ac(a2-3)Gal(b1-4)GlcNAc
# Summary of the method: as §1
# [44] = target: Neu5Gc(a2-8)Neu5Gc(a2-3)Gal(b1-4)GlcNAc
# Summary of the method: as §1
# [45] = target: Neu5Gc(a2-8)Neu5Gc(a2-3)Gal(b1-4)GlcNAc(b1-3)Gal(b1-4)GlcNAc
# Summary of the method: as §1
binder,measurement,setting,value
PfulAvr4 (Pseudocercospora fuligena) (protein) HHHHHHDYKDDDDKTYVQDKTPAFVCPAADIKTTKCLGPKDCLYPSPKTCNGYIQCSPADDSYLTGIIHEMPCPSGLLWNDNKKWCDWPENTTCGLVKSAGATEVDATKQGPTPGKYHG,glycan array binding signal (z-score),[1],-0.005
same,glycan array binding signal (z-score),[2],-0.1
same,glycan array binding signal (z-score),[3],-0.095
same,glycan array binding signal (z-score),[4],-0.158
same,glycan array binding signal (z-score),[5],-0.033
same,glycan array binding signal (z-score),[6],-0.155
same,glycan array binding signal (z-score),[7],-0.12
same,glycan array binding signal (z-score),[8],0.004
same,glycan array binding signal (z-score),[9],-0.105
same,glycan array binding signal (z-score),[10],-0.114
same,glycan array binding signal (z-score),[11],-0.111
same,glycan array binding signal (z-score),[12],-0.079
same,glycan array binding signal (z-score),[13],-0.2
same,glycan array binding signal (z-score),[14],-0.124
same,glycan array binding signal (z-score),[15],-0.012
same,glycan array binding signal (z-score),[16],0.002
same,glycan array binding signal (z-score),[17],-0.092
same,glycan array binding signal (z-score),[18],-0.123
same,glycan array binding signal (z-score),[19],0.146
same,glycan array binding signal (z-score),[20],-0.074
same,glycan array binding signal (z-score),[21],-0.099
same,glycan array binding signal (z-score),[22],-0.093
same,glycan array binding signal (z-score),[23],-0.028
same,glycan array binding signal (z-score),[24],-0.137
same,glycan array binding signal (z-score),[25],-0.158
same,glycan array binding signal (z-score),[26],-0.012
same,glycan array binding signal (z-score),[27],-0.132
same,glycan array binding signal (z-score),[28],-0.054
same,glycan array binding signal (z-score),[29],-0.124
same,glycan array binding signal (z-score),[30],-0.156
same,glycan array binding signal (z-score),[31],-0.151
same,glycan array binding signal (z-score),[32],-0.107
same,glycan array binding signal (z-score),[33],-0.133
same,glycan array binding signal (z-score),[34],-0.14
same,glycan array binding signal (z-score),[35],-0.161
same,glycan array binding signal (z-score),[36],-0.082
same,glycan array binding signal (z-score),[37],-0.048
same,glycan array binding signal (z-score),[38],-0.141
same,glycan array binding signal (z-score),[39],-0.112
same,glycan array binding signal (z-score),[40],-0.132
same,glycan array binding signal (z-score),[41],-0.065
same,glycan array binding signal (z-score),[42],0.034
same,glycan array binding signal (z-score),[43],0.005
same,glycan array binding signal (z-score),[44],-0.073
same,glycan array binding signal (z-score),[45],-0.178
